Source: article PMC4336329 (PLoS ONE, 2015)
Out of some 310,000 compounds screened, about 2,200 (0.71%) showed an effect of 50% or more. The effect is printed as a negative number. Some of the results follow.

Molecular target: human ether-à-go-go-related gene (hERG) potassium channel (human, UniProt Q12809)
Experiment: primary screen, population patch clamp on CHO cells stably expressing hERG

Chain of human ether-à-go-go-related gene (hERG) potassium channel (Q12809 whole entry, looked up): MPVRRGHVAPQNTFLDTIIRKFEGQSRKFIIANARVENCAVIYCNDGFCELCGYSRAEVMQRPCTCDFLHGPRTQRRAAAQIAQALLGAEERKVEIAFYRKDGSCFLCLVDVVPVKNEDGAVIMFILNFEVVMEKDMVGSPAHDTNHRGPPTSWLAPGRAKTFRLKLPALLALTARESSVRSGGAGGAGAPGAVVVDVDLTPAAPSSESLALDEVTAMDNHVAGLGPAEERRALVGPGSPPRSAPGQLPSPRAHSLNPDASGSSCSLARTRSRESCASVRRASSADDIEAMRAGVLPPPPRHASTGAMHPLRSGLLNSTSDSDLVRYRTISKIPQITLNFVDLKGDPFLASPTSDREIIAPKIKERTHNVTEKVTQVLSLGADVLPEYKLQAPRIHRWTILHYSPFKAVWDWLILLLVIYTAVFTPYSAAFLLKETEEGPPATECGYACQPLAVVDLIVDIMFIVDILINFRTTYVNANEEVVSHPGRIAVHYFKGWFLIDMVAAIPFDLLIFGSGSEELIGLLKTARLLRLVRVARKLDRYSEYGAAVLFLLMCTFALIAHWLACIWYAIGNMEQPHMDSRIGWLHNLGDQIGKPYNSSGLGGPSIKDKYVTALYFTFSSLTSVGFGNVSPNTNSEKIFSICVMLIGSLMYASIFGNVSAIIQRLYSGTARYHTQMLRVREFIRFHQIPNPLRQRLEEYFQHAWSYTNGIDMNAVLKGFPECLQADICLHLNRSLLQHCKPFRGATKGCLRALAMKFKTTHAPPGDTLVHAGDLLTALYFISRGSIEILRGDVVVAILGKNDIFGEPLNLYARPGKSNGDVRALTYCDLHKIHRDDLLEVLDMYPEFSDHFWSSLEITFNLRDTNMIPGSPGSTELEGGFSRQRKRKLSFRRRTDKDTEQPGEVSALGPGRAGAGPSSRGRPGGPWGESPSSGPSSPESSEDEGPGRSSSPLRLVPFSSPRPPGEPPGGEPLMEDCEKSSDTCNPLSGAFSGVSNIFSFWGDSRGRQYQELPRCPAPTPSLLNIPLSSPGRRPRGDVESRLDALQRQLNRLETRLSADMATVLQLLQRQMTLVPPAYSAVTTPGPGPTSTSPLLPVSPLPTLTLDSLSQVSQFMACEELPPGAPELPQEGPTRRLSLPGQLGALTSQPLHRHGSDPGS

How did the “hERG current change (%, negative = inhibition) at 1uM” value turn out when `CCOc1cc(/C=C2/NC(=O)NC2=O)cc([N+](=O)[O-])c1O` was run?
Its value is 15.7%.

How did the “hERG current change (%, negative = inhibition) at 1uM” value turn out when `Cc1occc1C(=O)Nc1ccc(S(N)(=O)=O)cc1` was run?
Its value is 6.89%.

With `CCN(CC)S(=O)(=O)c1cc(C(=O)NC2CCCCC2)ccc1C` as the molecule, how does the “hERG current change (%, negative = inhibition) at 1uM” value read?
The value was -7.75%.

How did the “hERG current change (%, negative = inhibition) at 1uM” value turn out when `Cc1ccc(-c2noc(CN(C(=O)CCN3C(=O)c4ccccc4C3=O)C(C)C)n2)cc1` was run?
Its value is -3.67%.

How did the “hERG current change (%, negative = inhibition) at 1uM” value turn out when `CC1(c2ccccc2)NC(=O)N(CC(=O)Nc2nnc(C3CC3)s2)C1=O` (stereo not drawn) was run?
Its value is 13.5%.

How did the “hERG current change (%, negative = inhibition) at 1uM” value turn out when `COc1cc(/C=N/NC(=S)Nc2cccc(Cl)c2C)ccc1OCC(=O)N1CC(C)OC(C)C1` (stereo not drawn) was run?
Its value is -0.501%.

How did the “hERG current change (%, negative = inhibition) at 1uM” value turn out when `Cc1cc(N2CCOCC2)c2c(N)c(C)cc(C)c2n1` was run?
The value was -13.2%.

`COc1ccc(-c2oc3cc(O)c(OC)c(O)c3c(=O)c2OC)cc1` was tested. Which “hERG current change (%, negative = inhibition) at 1uM” value did it give?
The value was 4.26%.

`CCn1c(SCC(=O)Nc2nc(-c3ccc(C)cc3)cs2)nnc1-c1ccccc1O` was tested. Which “hERG current change (%, negative = inhibition) at 1uM” value did it give?
The value was 16.5%.

For `NC(=O)CC(NC(=O)Cc1ccc(Cl)cc1)c1ccc(NCCCN2CCCC2=O)c([N+](=O)[O-])c1` (stereo not drawn), which “hERG current change (%, negative = inhibition) at 1uM” value is on record?
Its value is 4.71%.

How did the “hERG current change (%, negative = inhibition) at 1uM” value turn out when `COC(=O)c1ccc(Cn2cnc3c(sc4nc(N5CCOCC5)c5c(c43)CCCC5)c2=O)o1` was run?
The value was 12.1%.

Which “hERG current change (%, negative = inhibition) at 1uM” value does the source give for `Cc1ccc(/C=C/C(=O)NCc2ccccn2)o1` here?
Its value is -2.26%.

Which “hERG current change (%, negative = inhibition) at 1uM” value does the source give for `NC(=O)c1nn(-c2cccc(Cl)c2)c(=O)cc1O` here?
The value was 0.296%.

For `Cc1cc(C)c(C#N)c(SC2CCCCC2=O)n1` (stereo not drawn), which “hERG current change (%, negative = inhibition) at 1uM” value is on record?
The value was 4.04%.

For `CC(Sc1nnc(C2CC2)n1C1CC1)C(=O)Nc1ccc(C(N)=O)cc1` (stereo not drawn), which “hERG current change (%, negative = inhibition) at 1uM” value is on record?
The value was -2.36%.

How did the “hERG current change (%, negative = inhibition) at 1uM” value turn out when `O=C1c2ccccc2-c2nccnc21` was run?
Its value is -15.3%.

`COc1cccc(C2CC(c3ccccc3Cl)Nc3nc(N)nn32)c1` (stereo not drawn) was tested. Which “hERG current change (%, negative = inhibition) at 1uM” value did it give?
Its value is 10.6%.

Which “hERG current change (%, negative = inhibition) at 1uM” value does the source give for `O=C(CN1CC(=O)Oc2ccccc21)OCC(=O)c1ccc(F)cc1` here?
Its value is 9.67%.

Which “hERG current change (%, negative = inhibition) at 1uM” value does the source give for `COC(=O)C1=C(C)Nc2c(c(=O)n(C)c(=O)n2C)C1c1cccs1` (stereo not drawn) here?
Its value is 11.7%.

For `O=C(COC(=O)c1ccccc1)NCc1ccco1`, which “hERG current change (%, negative = inhibition) at 1uM” value is on record?
The value was 15.4%.

`COc1ccc(C2=NN(C(=O)CSc3nnnn3C)C(c3ccco3)C2)cc1` (stereo not drawn) was tested. Which “hERG current change (%, negative = inhibition) at 1uM” value did it give?
The value was 3.72%.

For `COc1ccc(-c2c(NC(=O)c3ccco3)n(-c3ccccc3)nc(C)c2=O)cc1`, which “hERG current change (%, negative = inhibition) at 1uM” value is on record?
The value was 12.3%.

How did the “hERG current change (%, negative = inhibition) at 1uM” value turn out when `CCNC(=O)CCSc1nc2cc(Cl)ccc2o1` was run?
Its value is 13.3%.

Which “hERG current change (%, negative = inhibition) at 1uM” value does the source give for `COc1ccc(N(C(=O)/C=C/c2ccccc2)C2=CC3CCC(C2)N3C)cc1.Cl` (stereo not drawn) here?
The value was -70.3%.
